Results published in the RNAGym collection of RNA variant scans (doi:10.7554/elife.90254).
Read counts are not given, so values of variants with three or more changes are uncertain.

B1: OR4K15 (parent)
chain: GUUAACGGUCAUAGGCCAUGGAAACUAGGAGCACCAUUUCGCUGCCAGUGAAGAAAUGAACAAAGAAAAUCUGGGCCAGGCAGGCAUCAAAAGAAAUAGUCUUGCGCUCAACCAGAAAGUCUGUAAUCAUUUUAAGGGUA

Variants of: B1
Assay: self-cleavage, relative activity (ratio to wild type); higher = more cleavage; in vitro, sequencing; the parent is a self-cleaving ribozyme

Variant | self-cleavage
GUUAACGGUCAUAGGCCAUGGAAACUAGGAGCACCAUUUCGCUGCCAGUGAAGAAGUGAACAAGGAAAAUCUGGGCCAGGCAGGCAUCAAAAGAAAUAGUCCUGCGCUCGACCAGAAAGUCUGUAAUCAUUUUAAGGGUA [A56G A64G U102C A110G] | 0.21
GUUAGCGGUCAUAGGCCAUGGAAACUAGGAGCACCAUAUCGCUGCCAGUGAAGAAAUGAACAAAGAAAAUCUAGGCCAGGCAGGCAUCAAAAGAAAUAGUCUUGCGCUCAACCAGAAAGUCUGUAAUCAUUUUAAGGGUA [A5G U38A G73A] | 0.32
GUUAACGGUCAUAGGCCAUGGAAACUAGGAGCACCAUUUCGCUGCCAGUGAAGGAAUGAAAAAAGAAAAUCUGGGCCAGGCAGGCAUCAAAAGGGAUAGUCUUGCGCUCAACCAGAAAGUCUGCAAUUAUUUUAAGGGUA [A54G C61A A94G A95G U124C C128U] | 0.94
GUUAACGGUCAUAGGCCAUGGAAACUAGGAGCACCAUUUCGCUGCCAGUGAGGAAAUGAACUAAGAAAAUCUGGGCCAGGCAGGCAUCAAAAGGAAUAGUCUUGCGCUCAACCAGAAAGUCUGUAAUCAUUUUAAGGGUA [A52G A62U A94G] | 1.81
GUUAACGGUCAUAGGCCCUGGAAACUAGGAGCACCAUUUCGCUGCCAGUGAAGAAAUGAACAAAGAAAACCUGGGCCAGGCAGGCAUCAAAAGAAAUAGUCUUGCGCCCAACCAGAAAGUCUGUAAUCAUUUUAAGGGUA [A18C U70C U108C] | 0.03
GUUAACGGUCGUAGGCCAUGGAAACUAGGAGCACCAUUUCGCUGCCAGUGAGGAAAUGAACAAAGAAAAUCUGGGCCAGGCAGGCAUCAAAAGAAGUAGUCUUGCGCUCAACCAGAAAGUCUGUAAUCAUUUUAAGGGUA [A11G A52G A96G] | 1.26
GUUAACGGCCAUAGGCCAUGGAAACUAGGAGCACCAUUUCGCUGCCAGUGAAGAAAUGAACAAAGAAAAUCUGGGCCAGGCAGGCAACAAAAGAAAUAGUCUUGCGCUCAACCAGAAAGUCUGUAAUCACUUUAAGGGUA [U9C U87A U130C] | 2.34
GUUAACGGUCAUAGGCCAUGGAAACUAGGAGCACCAUUUCGCUGCCAGUGAAGGAGUGAACAAAGAAAAUCUGGGCCAGGCGGGCAUCAAAAGAAAUAGUCUUGCGCUCAACCAGAAAGUCUGUAACCAUUUUAAGGGUA [A54G A56G A82G U127C] | 0.44
GUUAACGGUCAUAGACCAUGGAAACUAGGAGCACCAUUUCGCUGCCGGUGAAGAAAUGAACAAAGAAAAUCAGGGCCAGGCAGGCAUCAAAAGAAAUAGUCUUGCGCUCAACCAGUAAGUCUGUAAUCAUUUUAAGGGUA [G15A A47G U72A A116U] | 0.02
GUUAACGGUCAUAGGCCAUGGAGACUGGGAGCACCAUUUCGCUGCCAGUGAAGAAGUGAACAUAGAAAAUCCGGGCCAGGCAGGUAUCAAAAGAAAUAGUCUUGCGCUCAACCAGAAAGCCUGUAAUCAUUUUAAGGGUA [A23G A27G A56G A63U U72C C85U U120C] | 0.23
GUUAACGGUCAUAGGCCAUGGAGACUAGGAGCACCAUUUCGCUGCCAGUGAAGAAAUGAACAAAGAAAACCUGGGCCAGGCAGGCAUCAGAAGAAAUAGUCCUGCGCUCAACCAGAAAGUCUGUAAUCAUUUUAAGGGUA [A23G U70C A90G U102C] | 0.54
GUUAACGGUCAUAGGCCAUGGAAACUAGGAGCACCAUAUCGCUGCCAGUGAAGAAAUGAACAAAGAAAAUCUGGGCCAGGCAGGCAUCAAAAGAGAUAGUCUUGCGCUCAACCGGAAGGUCUGUAAACAUUUUAAGGGUA [U38A A95G A114G A118G U127A] | 0.44
GUUAACGGUUAUAGGCCUUGGAAACUAGGAGCACCAUUUCGCUGCCAGUGAAGGAAUGAACAAAGAAAAUCUGGGCCAGGCAGGCAUCAAAAGAAAUAGUCUUGCGCUCAACCAGAAAGUCUGUAAUCAUUUUAAGGGUA [C10U A18U A54G] | 1.18
GUUAACGGUCAUAGGCCAUGGAAGCCAGGAGCACCAUUUCGCUGCCAGUGAAGAAAUGAACAAAGAAAAUCUGGGCCAGGCAGGCAUCAAAAGAAAUAGUCUUGCGCUCAACCAGAAAGUCUGCAAUCAUUUUAAGGGAA [A24G U26C U124C U139A] | 1.05
GUUAACGGUCAUAGGCCAUGGAAGCUAGGAGCACCAUCUCGCUGCCAGUGAAGAAAUGAACAAGGAAAAUCUGGGCCAGGCUGGCAUCAAAAGAAAUAGUCUUGCGCUCAACCAGAAAGUCAGUAAUCAUUUUAAGGGUA [A24G U38C A64G A82U U122A] | 0.12
GUUAACGGUCAUAGGCCAUGGAAACUAGGAGCACCAUUUCGCUGCCAGUGAAGAAAUGAACAAAGAAAUUCUGGGCCAGGCAGGCAUCAAAAGGAAUAGUCUUGCGCCCAACCAGAAAGUCUGUAAUCAUUUUAAGGGUA [A69U A94G U108C] | 0.02
GUUAACGGUCAUAGGCCAUGGAAACUAGGAGCACCAUUUCGCUGCCAGUGAAGAAAUGAACAAAGAAAAUCCGGGCCAGGCAGGCAUCAAAAGAAAUAGUCUCGCGCCCAACCAGAAAGUCUGUAAUCAUUUUAAGGGUA [U72C U103C U108C] | 0
GUUAACGGUCAUAGGCCAUGGAAACUAGGAGCACCACUUCGCUGCCAGUGAAGAAAUGGACAAAGAAAAUCUGGGCCAGGCAGGCAUCAAAAGAAAUAGUCUCGCGCACAACCAGAAAGUCUGUAAUCAUUUUAAGGGUA [U37C A59G U103C U108A] | 0.02
GUUAACGGUCAUAGGCCAUGGAUACUAGGAGCACCAUUUCGCUGCCAGUGAAGAAAUGAACAAAGAAAAUCUGGGCCUGGCAGGCAUCGAAAGAAAUAGUCUUGCGCUCAACCAGAAAGUCUGUAAUCAUUUUAAGGGUA [A23U A78U A89G] | 0.53
GUUAGCGGUCAUAGGCCAUGGAAGCUAGGAGCACCAUUACGCUGCCAGUGAAGAAAUGAACAAAGAAAAUCUGGGCCAGGCAGGCAUCAUAAGAAAUGGUCUCGCGCUCAACCAGAAAGUCAGUAAUCAUUUUAAGGGUA [A5G A24G U39A A90U A98G U103C U122A] | 0.22
